Measurements from PubChem BioAssay AID1631 (National Center for Advancing Translational Sciences (NCATS), 2009).
The campaign covered roughly 260,000 compounds. About 890 (0.34%) were called active. The inconclusive results got no clear call from the source; some entries with a clear call stand among them for comparison. Calls come from the whole dose curve; as a rule, active = well fitted activation curve with a large enough effect; inconclusive = small, poorly fitted or top-dose-only effect; inactive = no such curve, though single readings can be large or run the other way. No potency is given beside an inconclusive call; the fits are too rough.

The compounds below were run against Pyruvate kinase PKM (Homo sapiens) (UniProt P14618) (assay: qHTS Assay for Activators of Human Muscle isoform 2 Pyruvate Kinase). Conditions: purified PKM2, Kinase-Glo ATP luminescence; Potency: activation; activation: at 57.5 µM (top of the series), 0% is enzyme alone, no compound.
Outline: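 Purified hPK-M2 (>95% pure) converted ADP (0.1 mM final) to ATP with 0.5 mM PEP in 50 mM imidazole pH7.2, KCl, MgCl2, Tween 20, BSA; 1 h at room temperature. ATP detected by Kinase-Glo luminescence.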
% is set by controls: 0 for no effect and ±100 for the full control effect; potency is the fitted concentration of half-maximal effect; tags give direction and shape of the fitted curve.
Note: nearly all actives have a fitted effect of over 55% in size.

UniProt P14618, sequence (P14618 whole entry, looked up, canonical isoform): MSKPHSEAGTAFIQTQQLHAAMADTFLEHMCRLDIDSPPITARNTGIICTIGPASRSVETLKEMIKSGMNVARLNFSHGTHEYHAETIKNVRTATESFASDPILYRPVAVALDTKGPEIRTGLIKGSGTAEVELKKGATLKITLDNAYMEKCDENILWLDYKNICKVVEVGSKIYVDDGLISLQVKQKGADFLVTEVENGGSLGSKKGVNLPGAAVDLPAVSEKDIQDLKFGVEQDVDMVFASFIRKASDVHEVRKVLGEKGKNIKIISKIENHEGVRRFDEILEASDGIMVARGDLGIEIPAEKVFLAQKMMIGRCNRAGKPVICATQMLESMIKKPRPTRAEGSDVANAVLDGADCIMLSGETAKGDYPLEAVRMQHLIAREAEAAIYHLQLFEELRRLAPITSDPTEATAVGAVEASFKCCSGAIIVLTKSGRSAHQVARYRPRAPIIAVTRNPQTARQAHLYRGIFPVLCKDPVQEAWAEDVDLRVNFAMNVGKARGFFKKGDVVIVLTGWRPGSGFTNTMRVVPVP

Structure (SMILES)	Potency	activation
CC1(C)OC(=O)C(=Cc2ccc(-c3ccc(S(N)(=O)=O)cc3)o2)C(=O)O1	inconclusive [rising, partial curve]	–
Cc1ccc(N(C(=O)c2ccc(CN3CCOCC3)o2)C(C(=O)NCCC(C)C)c2cccs2)c(C)c1 (stereo not drawn)	inconclusive [rising, partial curve]	–
Cc1ccccc1CSc1nn2c(=O)c(C)nnc2s1	inconclusive [rising, single point]	–
O=S(=O)(NCCSCc1c(Cl)cccc1Cl)c1ccc2c(c1)OCCO2	inconclusive [rising, single point]	–
NC(=O)CC(NC(=O)Cc1ccc(Br)cc1)c1ccc(NCCc2ccc(F)cc2)c([N+](=O)[O-])c1 (stereo not drawn)	inconclusive [rising, full curve]	–
Cc1nn(C)cc1CN(C)C(=O)c1nn2c(c1Cl)NC(c1cccs1)CC2C(F)(F)F (stereo not drawn)	inconclusive [rising, single point]	–
c1csc(-c2nc3c4ccccc4c4ccccc4c3[nH]2)c1	inactive	–
COc1ccc(C2CC(c3ccc4ccccc4c3OC(C)=O)=NN2C(C)=O)cc1 (stereo not drawn)	inconclusive [rising, partial curve]	–
Cn1nc(-c2ccc(Cl)cc2)c2cc(C(=O)NCC3CCCO3)sc21 (stereo not drawn)	inconclusive [rising, single point]	–
Cc1ccc(-n2sc3ccccc3c2=O)cc1S(=O)(=O)N1CCCCC1	inconclusive [rising, full curve]	–
CCS(=O)(=O)Nc1ccc(C2=NN(C(=O)c3ccco3)C(c3cccc(F)c3)C2)cc1 (stereo not drawn)	inconclusive [rising, single point]	–
CCOC(=O)Cc1nnc(NC(=O)CSc2nnc3c4ccccc4n(C)c3n2)s1	inconclusive [rising, single point]	–
Cc1nn(-c2ccccc2)c2sc(C(=O)NC3CCCCC3)cc12	inconclusive [rising, single point]	–
COC(=O)c1c(C)nc(C)c2c(=O)oc3ccccc3c12	inactive	–
Cc1ccc(S(=O)(=O)N2CCCN(S(=O)(=O)c3ccc4ccccc4c3)CC2)cc1	active: 0.708 µM	–
Cc1c(C(=O)O)oc2c1C(O)CC(C)(C)C2 (stereo not drawn)	inconclusive [rising, single point]	–
CN(C)c1ccc(/C=N/NC(=O)c2ccccc2O)o1	inconclusive [rising, single point]	–
Nc1ccc2nc(SCc3cccc(F)c3)sc2c1	inactive	–
O=C(COc1ccccc1)N1CCN(S(=O)(=O)c2ccc(Cl)cc2)CC1	inconclusive [rising, partial curve]	–
O=c1c2ccccc2sn1-c1ccc(S(=O)(=O)N2CCCC2)cc1	active: 1.41 µM	–
N#CC1=C(N)NC(SCC(=O)Nc2ccccc2)=C(C#N)C12CCCC2	inconclusive [rising, single point]	–
Oc1ccccc1CNc1ncc(Br)cc1Br	inconclusive [rising, single point]	–
COc1ccc2c(c1)c(C(=O)N/N=C/c1ccc(O)c(O)c1)c(C)n2C	inconclusive [rising, full curve]	–
O=C(NCc1cccc2ccccc12)[C@H]1C[C@@H]1[C@H](NP(=O)(c1ccccc1)c1ccccc1)c1ccccc1	inactive	–
CCN(CC)S(=O)(=O)c1ccc(NS(=O)(=O)c2cccc(C)c2)cc1	inactive	–

Structure (SMILES)	Potency	activation
Cc1ccc(/C=N/N(C)C2=NS(=O)(=O)c3ccccc32)o1	inconclusive [rising, single point]	–
CCc1ccc(NC(=O)C2CCN(S(=O)(=O)c3ccc4c(c3)CC(C)N4C(C)=O)CC2)cc1 (stereo not drawn)	inactive	–
COc1ccc(CCNC(=O)c2ccc3nc(-c4ccco4)c(-c4ccco4)nc3c2)cc1OC	inconclusive [rising, partial curve, poor fit]	–
COc1ccc(OC)c(Nc2nc(-c3ccc(O)c(O)c3)cs2)c1	inconclusive [rising, full curve]	–
C=CCSc1nsc(NC(=O)Nc2ccc(F)cc2)n1	inactive	–
O=[N+]([O-])c1ccc2nc(NS(=O)(=O)c3ccc(F)cc3)sc2c1	inconclusive [rising, single point]	–
COC(=O)c1[nH]c2cc(C)ccc2c1NC(=O)CN1CCc2cc(OC)c(OC)cc2C1	inactive	–
Cc1ccc(C)c(N2CCN(C(=O)c3ccc(NS(=O)(=O)c4c(C)noc4C)cc3)CC2)c1	inconclusive [rising, single point]	–
O=C(COc1cccnc1[N+](=O)[O-])c1ccc(Cl)s1	inactive	–
Cc1nc(NC(=S)NC(=O)c2ccccc2)sc1C	inactive	–
c1cncc(-c2nn3c(Cn4cnc5ccccc54)nnc3s2)c1	inconclusive [rising, partial curve]	–
O=C(CN1C(=O)CC(c2ccco2)Sc2ccccc21)Nc1ccccc1F (stereo not drawn)	inconclusive [rising, partial curve]	–
O=C(Nc1cc(C(=O)Nc2ccccc2C(=O)O)cc(C(=O)Nc2ccccc2C(=O)O)c1)c1ccccc1	inactive	–
COc1cc(/C=C/[N+](=O)[O-])ccc1OCc1cccc(C(=O)O)c1	inconclusive [rising, partial curve]	–
COc1ccc2cc(S(=O)(=O)c3ccccc3)c(=O)oc2c1	active: 5.01 µM	–
CC#CCN1c2ccccc2[C@]23C[C@@H](C(=O)OC)N(C(=O)c4cccs4)C2=NC(C(=O)OC)=C(C(=O)OC)[C@H]13	–	inactive: 0.282% [at 11.5 µM, 0% is enzyme alone, no compound]
Cc1ccc([N+](=O)[O-])c(OCCn2cnc3ccccc32)c1	active: 8.91 µM	–
CCc1nc(SCc2ccccn2)c2c(=O)n(C)c(=O)n(C)c2n1	inconclusive [rising, partial curve]	–
CN(C)c1nc(N)nc(CSc2nnnn2-c2cccc3ccccc23)n1	inconclusive [rising, partial curve]	–
O=c1/c(=C/c2cccc3ccccc23)sc2ncnn12	inconclusive [rising, single point]	–
C/C(=N/Nc1nc(-c2ccccc2)cc(-c2ccccc2)n1)c1ccc(N)cc1	inactive	–
O=C1C=C(NCc2ccccc2)c2ccccc2C1=O	inactive	–
Cn1c(SCC(=O)N/N=C/C=C\c2ccco2)nc2ccccc21	active: 7.08 µM	–
CCOC(=O)c1c(-c2cccs2)csc1NC(=O)COC(=O)c1c(C)noc1C	active: 14.1 µM	–
Cc1nc2cc3nc(C)sc3cc2s1	inconclusive [rising, single point]	–

Structure (SMILES)	Potency	activation
O=C(COC(=O)c1cc(S(=O)(=O)N2CCc3ccccc3C2)ccc1Cl)NCc1ccco1	inconclusive [rising, single point]	–
COc1cc(NC(=S)N2CCC(C(O)(c3ccccc3)c3ccccc3)CC2)cc(OC)c1	inactive	–
Cc1cc(=O)oc2cc(OCC3CC(c4ccc(Cl)cc4)=NO3)ccc12 (stereo not drawn)	inactive	–
COc1ccc(NC(=O)N2CCN(S(C)(=O)=O)CC2)cc1	inactive	–
Cn1c(=O)c(Nc2ccc(O)cc2)c2c3c(cccc31)C(=O)c1ccccc1-2	inconclusive [rising, partial curve]	–
O=C(Cc1ccc(S(=O)(=O)N2CCOCC2)s1)Nc1nc2c(s1)CCCC2	inconclusive [rising, full curve]	–
Cc1[nH]c2ccc(F)cc2c1CCN(Cc1cccnc1)C(=S)Nc1ccc(F)cc1	inactive	–
O=C(NCc1ccco1)c1ccc(NS(=O)(=O)c2cccc(F)c2)cc1	inconclusive [rising, partial curve]	–
CCOc1cccc(C(=O)NC(=S)Nc2ccccc2)c1	inactive	–
CCCCN(CCCC)C(=S)N/N=C/c1c(C)[nH]n(-c2ccccc2)c1=O	inactive	–
Fc1ccc(-c2cnn3c(-c4ccncc4)ccnc23)cc1	inactive	–
COc1ccc(NC(=O)c2ccc(NC(=O)CSc3nccc(=O)[nH]3)cc2)cc1	inconclusive [rising, single point]	–
CCc1nc(SCC(=O)N2CCCC2)c2ccccc2n1	inconclusive [rising, full curve, poor fit]	–
O=C1S/C(=C\c2ccc(O)c([N+](=O)[O-])c2)C(=O)N1Cc1cccc([N+](=O)[O-])c1	inactive	–
Cc1cc(C)cc(OCC(=O)Nc2cccc(-c3nc4ncccc4o3)c2)c1	inactive	–
Cc1occc1-c1nnc(SCC(=O)Nc2ccccc2-c2ccccc2)n1C	inconclusive [rising, single point]	–
Cc1ccc(-c2cc(-c3ccc(Cl)cc3)c(C#N)c(N)n2)o1	inconclusive [rising, partial curve]	–
O=[N+]([O-])c1ccc(Oc2cccc(C(F)(F)F)c2)nc1	inactive	–
CC(=O)Oc1ccc(NC(=O)Cc2ccccc2)c(C(=O)O)c1	inconclusive [rising, single point]	–
CCOC(=O)N1CCC(N2CCCC(C(=O)c3cc(C)c(OC)c(C)c3)C2)CC1 (stereo not drawn)	inconclusive [rising, single point]	–
c1ccc(CNc2nc(NCc3ccccc3)c3ccccc3n2)cc1	inconclusive [rising, single point]	–
CC(C)C[C@H](N)c1nnc(S(=O)(=O)Cc2ccc(F)cc2)o1	active: 10 µM	–
Cn1ncc(N2CCN(S(=O)(=O)c3ccc(Br)cc3)CC2)c(Cl)c1=O	inconclusive [rising, partial curve]	–
